Results from article PMC6323126.
These are yes or no findings as the source states them, for the method shown. For part of these data: In cells and extracts the contact can be indirect. Some binding calls cover weakened binding; strength is not graded here. For part of these data: Tags and fused reporters may be left off the sequences shown.

Sequences of proteins named here, by UniProt entry; tags and fusion partners are left off.
UniProt Q5VSL9: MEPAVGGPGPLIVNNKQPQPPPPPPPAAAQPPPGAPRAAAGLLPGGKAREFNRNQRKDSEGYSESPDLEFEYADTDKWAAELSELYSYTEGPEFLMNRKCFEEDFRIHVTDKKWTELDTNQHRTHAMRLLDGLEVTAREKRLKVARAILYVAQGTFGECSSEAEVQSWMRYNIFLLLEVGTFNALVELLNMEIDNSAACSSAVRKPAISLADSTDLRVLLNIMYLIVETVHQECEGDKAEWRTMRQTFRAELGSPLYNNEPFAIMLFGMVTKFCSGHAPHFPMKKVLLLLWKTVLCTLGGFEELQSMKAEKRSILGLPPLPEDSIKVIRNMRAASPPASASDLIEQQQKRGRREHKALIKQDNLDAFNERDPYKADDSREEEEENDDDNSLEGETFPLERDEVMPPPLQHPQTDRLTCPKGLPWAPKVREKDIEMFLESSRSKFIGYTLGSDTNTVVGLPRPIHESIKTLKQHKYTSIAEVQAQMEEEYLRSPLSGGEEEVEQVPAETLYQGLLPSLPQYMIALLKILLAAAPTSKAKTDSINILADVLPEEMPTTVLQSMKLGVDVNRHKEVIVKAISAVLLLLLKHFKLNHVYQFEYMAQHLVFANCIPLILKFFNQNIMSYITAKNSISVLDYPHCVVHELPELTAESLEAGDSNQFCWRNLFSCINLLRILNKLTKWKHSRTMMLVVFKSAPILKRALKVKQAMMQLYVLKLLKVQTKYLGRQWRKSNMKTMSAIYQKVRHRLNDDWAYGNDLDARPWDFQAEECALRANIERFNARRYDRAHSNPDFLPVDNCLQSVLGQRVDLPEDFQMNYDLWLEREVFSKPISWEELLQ
UniProt Q9P289: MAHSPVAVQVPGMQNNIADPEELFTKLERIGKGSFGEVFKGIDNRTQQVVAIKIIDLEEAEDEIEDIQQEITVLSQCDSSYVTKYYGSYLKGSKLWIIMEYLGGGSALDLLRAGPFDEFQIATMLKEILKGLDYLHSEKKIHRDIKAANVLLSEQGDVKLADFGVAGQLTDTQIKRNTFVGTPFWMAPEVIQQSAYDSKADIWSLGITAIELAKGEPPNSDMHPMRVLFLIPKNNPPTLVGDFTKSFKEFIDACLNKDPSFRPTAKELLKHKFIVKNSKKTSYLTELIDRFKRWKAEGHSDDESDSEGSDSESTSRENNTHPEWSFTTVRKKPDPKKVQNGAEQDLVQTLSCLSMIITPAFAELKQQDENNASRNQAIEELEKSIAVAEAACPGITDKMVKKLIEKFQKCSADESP
UniProt O95747: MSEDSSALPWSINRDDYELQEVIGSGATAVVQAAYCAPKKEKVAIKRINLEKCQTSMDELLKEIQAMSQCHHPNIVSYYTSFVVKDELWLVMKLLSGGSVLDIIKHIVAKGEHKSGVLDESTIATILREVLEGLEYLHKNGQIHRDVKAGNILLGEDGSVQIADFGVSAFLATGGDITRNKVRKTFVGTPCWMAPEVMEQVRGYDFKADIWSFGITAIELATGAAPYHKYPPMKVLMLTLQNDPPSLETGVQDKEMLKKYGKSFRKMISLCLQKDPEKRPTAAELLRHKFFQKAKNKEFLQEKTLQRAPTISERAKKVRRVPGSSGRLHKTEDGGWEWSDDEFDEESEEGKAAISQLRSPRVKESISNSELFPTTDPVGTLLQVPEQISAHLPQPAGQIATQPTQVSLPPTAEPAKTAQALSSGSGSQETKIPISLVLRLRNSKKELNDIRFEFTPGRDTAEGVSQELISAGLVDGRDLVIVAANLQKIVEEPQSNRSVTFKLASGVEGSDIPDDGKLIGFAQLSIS

How the values were obtained:
[1] = biological target: T1, MBP-tagged STRN3 fragment (residues 64–341) (human) (UniProt Q13033); test: pull-down; MBP pulldown: MBP-tagged protein, partner and amylose resin mixed at 4 °C for 1 h in 20 mM HEPES (pH 7.5), 100 mM NaCl; eluted with 20 mM maltose; SDS-PAGE, Coomassie staining; both purified
T1 sequence: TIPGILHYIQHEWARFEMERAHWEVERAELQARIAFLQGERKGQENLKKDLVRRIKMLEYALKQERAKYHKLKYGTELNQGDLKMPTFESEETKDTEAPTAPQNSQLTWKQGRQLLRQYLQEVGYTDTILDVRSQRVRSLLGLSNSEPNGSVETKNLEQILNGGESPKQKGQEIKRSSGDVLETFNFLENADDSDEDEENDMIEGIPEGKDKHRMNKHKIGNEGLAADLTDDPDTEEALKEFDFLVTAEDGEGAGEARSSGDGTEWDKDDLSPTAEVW

[2] = biological target: T2, STRN3 (residues 64–190) (human) (UniProt Q13033); test: as above
T2 sequence: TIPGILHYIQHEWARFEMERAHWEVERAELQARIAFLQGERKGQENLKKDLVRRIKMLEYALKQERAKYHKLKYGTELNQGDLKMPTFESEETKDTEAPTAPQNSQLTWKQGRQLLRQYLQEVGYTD

[3] = biological target: T3, STRN3 peptide (residues 166–190) (human) (UniProt Q13033); test: pull-down; pulldown with purified recombinant proteins shown in supplementary figures; whether GST or MBP and who carried the tag not told; both purified
T3 sequence (peptide): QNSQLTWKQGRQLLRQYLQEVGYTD

[4] = biological target: STRIP1 (full-length, His-tagged, insect cells) (UniProt Q5VSL9); test: as above
[5] = biological target: T4, SIKE1 (recombinant, limits not stated) (human) (UniProt Q9BRV8); test: as above
T4 sequence: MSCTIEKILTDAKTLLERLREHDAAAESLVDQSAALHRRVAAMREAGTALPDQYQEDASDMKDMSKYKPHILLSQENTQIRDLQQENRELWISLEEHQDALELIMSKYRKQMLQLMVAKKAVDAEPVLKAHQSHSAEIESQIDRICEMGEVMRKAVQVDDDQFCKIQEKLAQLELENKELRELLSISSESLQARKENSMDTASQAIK

[6] = biological target: T5, STRN3 (endogenous) (human (endogenous in HEK293FT)) (UniProt Q13033); test: co-IP; endogenous proteins, HEK293FT cells at high (80%) and low (10%) cell density; immunoprecipitation of STRN3 or MST1; immunoblot
T5 sequence: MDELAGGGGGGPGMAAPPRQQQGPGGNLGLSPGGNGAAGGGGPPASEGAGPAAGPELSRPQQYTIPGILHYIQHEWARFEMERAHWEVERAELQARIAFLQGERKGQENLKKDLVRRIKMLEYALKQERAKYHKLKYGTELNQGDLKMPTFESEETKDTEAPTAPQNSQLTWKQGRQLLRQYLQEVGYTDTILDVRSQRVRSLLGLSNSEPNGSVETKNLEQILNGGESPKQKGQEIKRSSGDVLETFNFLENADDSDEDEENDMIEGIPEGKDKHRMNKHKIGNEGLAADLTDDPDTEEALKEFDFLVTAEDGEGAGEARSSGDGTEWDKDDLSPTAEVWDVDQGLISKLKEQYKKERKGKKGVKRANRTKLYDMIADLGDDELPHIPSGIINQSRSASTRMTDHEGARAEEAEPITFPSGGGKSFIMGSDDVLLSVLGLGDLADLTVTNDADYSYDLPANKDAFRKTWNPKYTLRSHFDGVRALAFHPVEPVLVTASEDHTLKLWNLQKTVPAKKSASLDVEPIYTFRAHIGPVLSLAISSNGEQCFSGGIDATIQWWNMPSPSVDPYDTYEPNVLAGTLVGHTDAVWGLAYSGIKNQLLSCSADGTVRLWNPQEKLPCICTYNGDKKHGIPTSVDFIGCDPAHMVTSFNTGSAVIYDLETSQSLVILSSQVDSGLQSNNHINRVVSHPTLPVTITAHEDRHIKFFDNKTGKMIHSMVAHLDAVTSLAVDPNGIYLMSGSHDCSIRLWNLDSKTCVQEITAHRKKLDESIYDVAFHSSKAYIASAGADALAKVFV

[7] = biological target: T6, MST1 (endogenous) (human (endogenous in HEK293FT)) (UniProt Q13043); test: as above
T6 sequence: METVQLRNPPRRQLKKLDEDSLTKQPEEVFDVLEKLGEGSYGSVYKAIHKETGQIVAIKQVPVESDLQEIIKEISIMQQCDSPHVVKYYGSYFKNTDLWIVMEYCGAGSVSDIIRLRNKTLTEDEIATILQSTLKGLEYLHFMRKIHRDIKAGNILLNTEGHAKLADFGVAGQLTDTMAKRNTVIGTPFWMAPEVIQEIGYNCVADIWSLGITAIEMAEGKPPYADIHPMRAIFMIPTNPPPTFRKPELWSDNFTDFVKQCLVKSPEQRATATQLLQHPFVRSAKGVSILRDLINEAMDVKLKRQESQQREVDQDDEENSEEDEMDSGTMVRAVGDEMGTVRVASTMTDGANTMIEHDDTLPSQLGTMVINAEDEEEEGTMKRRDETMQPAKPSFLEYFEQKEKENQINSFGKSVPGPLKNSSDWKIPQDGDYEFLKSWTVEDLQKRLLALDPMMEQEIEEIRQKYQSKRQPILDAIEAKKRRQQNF

[8] = biological target: T7, MST2 (recombinant, wildtype) (human) (UniProt Q13188); test: pull-down; GST pulldown: GST-tagged protein, partner and glutathione Sepharose mixed at 4 °C for 1 h in 20 mM HEPES (pH 7.5), 100 mM NaCl; eluted with 20 mM reduced glutathione; SDS-PAGE, Coomassie staining; both purified
T7 sequence: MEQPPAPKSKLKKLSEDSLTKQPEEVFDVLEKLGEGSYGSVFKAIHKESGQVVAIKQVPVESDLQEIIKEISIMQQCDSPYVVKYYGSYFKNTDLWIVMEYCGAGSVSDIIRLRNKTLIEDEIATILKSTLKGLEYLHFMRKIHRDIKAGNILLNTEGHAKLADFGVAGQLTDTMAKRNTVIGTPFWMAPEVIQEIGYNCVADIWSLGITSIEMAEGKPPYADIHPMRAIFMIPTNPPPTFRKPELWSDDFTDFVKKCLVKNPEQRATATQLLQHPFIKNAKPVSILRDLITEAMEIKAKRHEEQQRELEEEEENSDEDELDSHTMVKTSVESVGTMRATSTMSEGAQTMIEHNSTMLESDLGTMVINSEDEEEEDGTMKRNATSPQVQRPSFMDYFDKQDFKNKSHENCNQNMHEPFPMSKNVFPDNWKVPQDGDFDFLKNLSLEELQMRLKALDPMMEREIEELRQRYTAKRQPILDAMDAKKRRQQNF

[9] = biological target: MST4 (recombinant) (human) (UniProt Q9P289); test: pull-down; pulldown with the kinase (MST2 or MST4) first dephosphorylated with lambda-phosphatase (λPPase); both purified
[10] = biological target: T7, MST2 (recombinant, wildtype) (human); test: as above
[11] = biological target: OSR1 (recombinant) (human) (UniProt O95747); test: pull-down; pulldown with purified recombinant proteins shown in supplementary figures; whether GST or MBP and who carried the tag not told; both purified
[12] = biological target: T8, MST2 K56R (recombinant) (human) (UniProt Q13188); test: as above
T8 sequence: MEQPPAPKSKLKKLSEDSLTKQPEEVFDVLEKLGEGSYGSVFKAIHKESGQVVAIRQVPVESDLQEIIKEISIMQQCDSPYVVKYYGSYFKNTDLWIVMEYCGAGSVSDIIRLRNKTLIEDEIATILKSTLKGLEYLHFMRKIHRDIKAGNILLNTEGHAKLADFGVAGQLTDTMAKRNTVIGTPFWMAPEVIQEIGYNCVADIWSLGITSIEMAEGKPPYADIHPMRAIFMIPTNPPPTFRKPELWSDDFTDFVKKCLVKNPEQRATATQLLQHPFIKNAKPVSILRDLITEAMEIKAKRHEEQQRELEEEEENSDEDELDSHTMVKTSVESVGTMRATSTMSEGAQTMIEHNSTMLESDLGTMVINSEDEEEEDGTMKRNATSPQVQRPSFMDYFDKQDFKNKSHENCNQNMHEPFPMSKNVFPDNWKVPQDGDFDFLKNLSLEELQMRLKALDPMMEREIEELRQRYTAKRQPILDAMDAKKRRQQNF

B1: SIKE1 (recombinant, limits not stated) (protein, UniProt Q9BRV8 1-207)
chain: MSCTIEKILTDAKTLLERLREHDAAAESLVDQSAALHRRVAAMREAGTALPDQYQEDASDMKDMSKYKPHILLSQENTQIRDLQQENRELWISLEEHQDALELIMSKYRKQMLQLMVAKKAVDAEPVLKAHQSHSAEIESQIDRICEMGEVMRKAVQVDDDQFCKIQEKLAQLELENKELRELLSISSESLQARKENSMDTASQAIK
In the case of B1, the binding [1] is reported as “binds”, the binding [2] is reported as “binds” and the binding [3] is reported as “binds”.

B2: SLMAP coiled-coil regions (CC1-2, residues 161–565) (domain or fragment, UniProt Q14BN4 161-565)
chain: YSQELFQLSQYLQEALHREQMLEQKLATLQRLLAITQEASDTSWQALIDEDRLLSRLEVMGNQLQACSKNQTEDSLRKELIALQEDKHNYETTAKESLRRVLQEKIEVVRKLSEVERSLSNTEDECTHLKEMNERTQEELRELANKYNGAVNEIKDLSDKLKVAEGKQEEIQQKGQAEKKELQHKIDEMEEKEQELQAKIEALQADNDFTNERLTALQVRLEHLQEKTLKECSSLEHLLSKSGGDCTFIHQFIECQKKLIVEGHLTKAVEETKLSKENQTRAKESDFSDTLSPSKEKSSDDTTDAQMDEQDLNEPLAKVSLLKDDLQGAQSEIEAKQEIQHLRKELIEAQELARTSKQKCFELQALLEEERKAYRNQVEESTKQIQVLQAQLQRLHIDTENLREE
For B2, the binding [4] was “no binding” and the binding [5] was “binds”.

B3: TRAF3IP3 coiled-coil region (residues 188–513) (domain or fragment, UniProt Q9Y228 188-513)
chain: AVLDKEIIQLSDYLKEALQRELVLKQKMVILQDLLSTLIQASDSSWKGQLNEDKLKGKLRSLENQLYTCTQKYSPWGMKKVLLEMEDQKNSYEQKAKESLQKVLEEKMNAEQQLQSTQRSLALAEQKCEEWRSQYEALKEDWRTLGTQHRELESQLHVLQSKLQGADSRDLQMNQALRFLENEHQQLQAKIECLQGDRDLCSLDTQDLQDQLKRSEAEKLTLVTRVQQLQGLLQNQSLQLQEQEKLLTKKDQALPVWSPKSFPNEVEPEGTGKEKDWDLRDQLQKKTLQLQAKEKECRELHSELDNLSDEYLSCLRKLQHCREELN
In the case of B3, the binding [4] is reported as “no binding” and the binding [5] is reported as “binds”.

B4: SIKE1 (endogenous) (protein, UniProt Q9BRV8 1-207)
chain: MSCTIEKILTDAKTLLERLREHDAAAESLVDQSAALHRRVAAMREAGTALPDQYQEDASDMKDMSKYKPHILLSQENTQIRDLQQENRELWISLEEHQDALELIMSKYRKQMLQLMVAKKAVDAEPVLKAHQSHSAEIESQIDRICEMGEVMRKAVQVDDDQFCKIQEKLAQLELENKELRELLSISSESLQARKENSMDTASQAIK
With B4 the binding [6] was “binds” and the binding [7] was “binds”.

B5: STRN3 (residues 146–220) (domain or fragment, UniProt Q13033 146-220)
chain: LKMPTFESEETKDTEAPTAPQNSQLTWKQGRQLLRQYLQEVGYTDTILDVRSQRVRSLLGLSNSEPNGSVETKNL
For B5, the binding [8] was “no binding”.

B6: STRN3 (residues 221–341) (domain or fragment, UniProt Q13033 221-341)
chain: EQILNGGESPKQKGQEIKRSSGDVLETFNFLENADDSDEDEENDMIEGIPEGKDKHRMNKHKIGNEGLAADLTDDPDTEEALKEFDFLVTAEDGEGAGEARSSGDGTEWDKDDLSPTAEVW
In the case of B6, the binding [8] is reported as “no binding”.

B7: FHA domain (residues 5–135) of SLMAP (domain or fragment, UniProt Q14BN4 5-135)
chain: LAIFTCRPNSHPFQERHVYLDEPIKIGRSVARCRPAQNNATFDCKVLSRNHALVWFDHKTGKFYLQDTKSSNGTFINSQRLSRGSEESPPCEILSGDIIQFGVDVTENTRKVTHGCIVSTIKLFLPDGMEA
For B7, the binding [9] was “no binding (condition: MST4 treated with λPPase)”, the binding [10] was “no binding (condition: MST2 treated with λPPase)” and the binding [11] was “no binding”. For the same binder, the binding [12] was “no binding”.
